Reference: PubChem BioAssay (Tox21)
Where “and” joins values, the source holds several entries; their conditions need not be identical. Identical values can stand only once. This list was built around the results that the source calls inconclusive (neither active nor inactive); the mix of calls is not that of the screen. For some assays here: Potencies of inconclusive entries are left out as doubtful fits. Calls of active or inactive are those of the source. Unless noted, calls come from the whole dose curve; as a rule, active = well fitted curve in the direction sought with a large enough effect in the repeat runs; inconclusive = weak or mixed curves; inactive = no such curve, though single readings can be large; an effect the other way counts as inactive or inconclusive.

Experiment: qHTS assay to identify small molecule antagonists of the estrogen related receptor (ERR) signaling pathway from Tox21 library (AID 1224848); note: nearly all actives have a fitted effect of over 50% in size; note: potency is the fitted concentration of half-maximal effect
Details: ERR reporter cell line, luciferase antagonist mode, 18 h; series mostly up to 92.4 µM
Method in brief: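 Cells: ERR line, 2,000/well; 6 h preincubation 37 C/5% CO2. Cpd in DMSO via pin tool; 18 h, 37 C. ONE-Glo, 30 min RT, luminescence.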
% is set by controls: 0 for no effect and ±100 for the full control effect; tags give direction and shape of the fitted curve.

SMILES	Potency
COC(=O)[C@H]1[C@H]2C[C@@H]3c4[nH]c5cc(OC)ccc5c4CCN3C[C@H]2C[C@@H](OC(=O)COc2ccc(OC)cc2)[C@@H]1OC	inactive
CCCCCCCC(=O)OCC(O)CO (centres undefined)	inactive
C=CCOc1ccccc1OCC(O)CNC(C)C (centres undefined)	inactive
O=c1cc(CO)occ1O	inactive
CC(C)(O)c1ccc(CNC(=O)c2cccnc2Oc2ccc(F)cc2)cc1	active: 30.6 µM
Nc1ccc(S(=O)(=O)Nc2nccs2)cc1	inactive
C1CCCNCCC1	inactive
CCCCC(=O)O[C@]1(C(=O)CO)CC[C@H]2[C@@H]3CCC4=CC(=O)CC[C@]4(C)[C@H]3[C@@H](O)C[C@@]21C	inconclusive [inhibitor, partial curve]
Cl/C(=C\n1cncn1)c1ccc(Cl)cc1Cl	inconclusive [inhibitor, partial curve]
CCOC(=O)COC(=O)c1ccccc1C(=O)OCC	inactive

Experiment: qHTS assay to identify small molecule agonists of the estrogen related receptor (ERR) signaling pathway from Tox21 library (AID 1224849; calls by dose curve; note: nearly all actives have a fitted effect of over 15% in size)
Details: ERR reporter cell line, ONE-Glo luciferase, 18 h; at 42.5 µM (top of the series)
Method in brief: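 ERR reporter cell line (NTP) seeded, rested 6 h at 37 C/5% CO2, then pinned with Tox21 compounds in DMSO. After 18 h at 37 C, ONE-Glo luciferase luminescence was read following 30 min at room temperature.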

SMILES	activity change, positive = activation
N=C(N)c1ccc(OCCCOc2ccc(C(=N)N)cc2)cc1	inconclusive: 9.91%
CCC1=C(C)CN(C(=O)NCCc2ccc(S(=O)(=O)NC(=O)NC3CCC(C)CC3)cc2)C1=O (centres undefined)	inactive: -15.8%
CCCCCCCC(=O)OCC(O)CO (centres undefined)	inconclusive: 11.9%
CCCCNC(=O)NS(=O)(=O)c1ccc(C)cc1	inactive: 4.14%
CCN(CC)C(=O)Nc1ccc(OCC(O)CNC(C)(C)C)c(C(C)=O)c1 (centres undefined)	inactive: -6.6%
NCCNCCNCCN	inactive: 0.597%

Same assay, conditions: ERR reporter cell line, ONE-Glo luciferase, 18 h; at 92.4 µM (top of the series)

SMILES	activity change, positive = activation
CCCCNC(=O)NS(=O)(=O)c1ccc(C)cc1	inactive: -14.4% and inactive: 0.897%
CN(C)CCOCCO	inactive: 6.59%
NCc1ccccc1	inconclusive: 21.8%
NCCNCCNCCN	inconclusive: 16%

Experiment: qHTS RealTime-Glo MT Cell Viability Assay in HepG2 cells - 24 hour (AID 1224867); note: nearly all actives have a fitted effect of over 50% in size; note: potency is the fitted concentration of half-maximal effect
Details: RealTime-Glo luminescence; series mostly up to 76.8 µM
Method in brief: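 Compound treatment began 5 h after plating HepG2 cells (600/well) with NanoLuc luciferase and prosubstrate. Plates stayed at 37 C for 40 h; luminescence was captured at six time points, 0 h through 40 h.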

SMILES	Potency
CC[N+](CC)(CC)CCOc1cccc(OCC[N+](CC)(CC)CC)c1OCC[N+](CC)(CC)CC	inconclusive [falling, single point]
C[N+](C)(C)CC(O)CC(=O)[O-] (centres undefined)	inactive
CCCCNC(=O)NS(=O)(=O)c1ccc(C)cc1	inactive
Cn1cnc2c(F)c(Nc3ccc(Br)cc3Cl)c(C(=O)NOCCO)cc21	inconclusive [falling, full curve]
O=C(NS(=O)(=O)/C=C/c1cccs1)c1ccc(F)cc1Br	inactive
CC(=O)OCc1ccc2c(c1)OCO2	inactive

Experiment: qHTS RealTime-Glo MT Cell Viability Assay in HEK293 cells - 32 hour (AID 1224868); note: nearly all actives have a fitted effect of over 50% in size; note: potency is the fitted concentration of half-maximal effect; for activity change, negative = cytotoxic: top concentration of the series differs between compounds
Details: RealTime-Glo luminescence; series mostly up to 76.8 µM
Method in brief: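 Quantitative high-throughput screen of the Tox21 10K library in HEK293: cells and RealTime-Glo reagents plated together, compound added at 5 h, luminescence monitored through 40 h at 37 C.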

SMILES	Potency	activity change, negative = cytotoxic
O=C(c1ccccc1)C1(O)CCCCC1	inactive	–
CN(C)CCCNCCCN	inconclusive [rising, partial curve, poor fit]	–
CCCC(=O)OCC	inconclusive [rising, partial curve]	–
O=C(O)Cc1cccc(-c2cc(CCCCCCc3ccc(O[C@H]4O[C@H](CO)[C@@H](O)[C@H](O)[C@@H]4O)c(-c4cccc(CC(=O)O)c4)c3)ccc2O[C@H]2O[C@H](CO)[C@@H](O)[C@H](O)[C@@H]2O)c1	–	inactive: 4.81% [at 0.29 µM]
CC(=O)c1ccccc1N	inconclusive [cytotoxic, single point]	–
C[C@]12CCC(=O)C=C1CC[C@H]1[C@@H]3CC[C@](O)(C(=O)CO)[C@@]3(C)C[C@H](O)[C@@]12F	inactive	–
CC(C)(O)C(=O)O	inactive	–
CCc1cccc(N(C)C(N)=Nc2cccc3ccccc23)c1	inconclusive [cytotoxic, partial curve]	–
CCC(=O)OC(C)(C)C1CC=C(C)CC1 (centres undefined)	inconclusive [rising, partial curve, poor fit]	–
COC(=O)c1ccc2cc(C(=O)OC)ccc2c1	–	inactive: -1.06% [at 15.8 µM]
O=C1C(CCS(=O)c2ccccc2)C(=O)N(c2ccccc2)N1c1ccccc1 (centres undefined)	inactive	–
c1cc[nH]c1	inactive	–
CCCCc1ccc(N)cc1	inconclusive [cytotoxic, partial curve]	–
Cc1ccc2ccccc2c1[N+](=O)[O-]	inactive	–
CCO[Si](CCCN=C=O)(OCC)OCC	inactive	–
CCCCC(=O)O[C@]1(C(=O)CO)CC[C@H]2[C@@H]3CCC4=CC(=O)CC[C@]4(C)[C@H]3[C@@H](O)C[C@@]21C	inactive	–
COc1ccc(CN(CCN(C)C)c2ncccn2)cc1	inactive	–
C=C(C)C1CC=C(C)C(O)C1 (centres undefined)	inactive	–
